In ChEMBL document CHEMBL4888484, “Replenishing the malaria drug discovery pipeline: Screening and hit evaluation of the MMV Hit Generation Library 1 (HGL1) against asexual blood stage Plasmodium falciparum ,using a nano luciferase reporter read-out” (2022):
Out of some 150,000 compounds screened, about 540 (0.36%) showed an effect of 50% or more. The list shows a part of the results.

tested on: Plasmodium falciparum; experiment: Primary screen in NF54 nanoGlo assay, in single point, at 2uM, 72h; a lower Z score goes with more inhibition; type: functional, Erythrocyte; conditions: timepoint 72 hour

Compound | % Inhibition [%] | Z score
Cc1cc(C(=O)N(C[C@H]2CCCO2)c2nc3c(C)ccc(Cl)c3s2)on1 | -8 | 1.5
CN1CCN(Cc2nnnn2C)c2ccc(Cl)cc21 | 16 | -1.82
Cn1ncc(Oc2ccc(F)cc2)c(Nc2ccc(C(=O)NCCc3ccccn3)cc2)c1=O | -10 | 1.14
CCOC(=O)[C@H]1CCCN(C(=O)N(CC)CC)C1 | 9 | -1.81
CCCc1c(C(=O)OCC)c(C(=O)OCC)c2c(-c3ccccc3)nc(N3CCOCC3)nn12 | -7 | 0.96
CCN(CC(C)C)C(=O)c1cc(C)on1 | -6 | 0.68
CC(C)c1cc(C(=O)N2CC3CCCCC3C2)on1 (stereo not drawn) | 30 | -3.39
O=C(COc1ccc(-c2ncccn2)cc1CN1CCCCCC1)NC[C@H]1CCCO1 | 2 | -0.18
O=C1CNC(=O)N1CCN1CC2CCCCC21c1ccccc1 (stereo not drawn) | 11 | -1.95
Cc1ccc([C@@H](C)Cc2cn(Cc3nnc4ccccn34)nn2)o1 | -15 | 1.91
Fc1ccc(-c2noc([C@H]3CCCN(c4nc5ccccc5o4)C3)n2)cc1 | 0 | 0.08
Cc1ncccc1NC(=O)c1ccc([C@H]2CCCOC2)cc1 | -1 | 0.18
COC[C@H]1CCCN1C(=O)CCc1scnc1C | -5 | 0.87
CC(C)(C)NC(=O)NCc1cccnc1-c1cccs1 | 5 | -0.56
Cc1n[nH]c(-c2ccc(S(=O)(=O)N3CCN(C)CC3)o2)c1C | -3 | 0.52
COc1nc(C)nc2c1ccc1ccccc12 | -9 | 1.02
COc1ccc(-c2nnc(-c3ccccc3)n2-c2cccnc2)cc1 | -2 | 0.3
CCN1CCN(Cc2ccc3c(c2)OCCO3)[C@H]2CS(=O)(=O)C[C@H]21 | -6 | 1.21
CC(=O)N1CC2(CCN(C(=O)c3cnc(C(C)(C)C)s3)CC2)[C@H]2COC[C@H]21 | 1 | -0.15
c1cnn(C2CN(C[C@@H]3CCCN4CCCC[C@H]34)C2)c1 | -4 | 0.39
CO[C@@H]1CC[C@@]2(OC)CCN(C(=O)c3cnoc3-c3ccccc3)[C@H]2C1 | -7 | 1.13

Compound | % Inhibition [%] | Z score
CC1CCN(C(=O)CN(C)C2CCCC2)CC1 | -11 | 1.28
O=C(Nc1nnc2ccccn12)c1cccc(F)c1 | 0 | 0.05
COc1ccc(NC(=O)N2CC[C@H]3COC(=O)N3c3ccccc3C2)cc1 | -3 | 0.42
CCC(=O)Nc1ccnn1C1CCCCC1 | -8 | 1.11
O=C(Nc1cccc(C(F)(F)F)c1)c1cc(O)n(-c2ccc(Cl)cc2)c(=O)n1 | 6 | -0.75
Cc1ccc(CN2CC(N3CCCCC3)C2)s1 | -3 | 0.35
Cc1c(NCc2cccnc2)cccc1C(=O)N1CCN(C)C(=O)[C@@H]1C | -17 | 1.87
Cc1cc(C)nc(OCC2(O)CCN(C(=O)CC(C)C)CC2)n1 | -4 | 0.76
c1coc(-c2nnc3c4ccccc4nc(N4CCN(Cc5ccc6c(c5)OCO6)CC4)n23)c1 | 5 | -0.63
Fc1cc2ncnc(Oc3ccc(-n4cncn4)cc3)c2cc1Br | -16 | 1.85
CC(C)Cc1cc(-c2cn(C[C@H]3CNCCO3)nn2)n[nH]1 | -19 | 1.83
CC1(C)CN(C[C@H](O)c2ccccc2Cl)CCN1C[C@H](O)c1ccccc1Cl | 6 | -0.56
OC1CCN(c2ccnc(N3C[C@@H]4[C@@H]5CC[C@@H](C5)[C@@H]4C3)n2)C1 (stereo partly drawn) | -4 | 0.59
O=C1CCc2cc(S(=O)(=O)Oc3ccc(F)cc3Cl)ccc2N1 | 4 | -0.79
CCn1cc(C2OCCC2CNCc2ccc3c(c2)CCO3)cn1 (stereo not drawn) | -3 | 0.27
Cc1cc(C(=O)N(C)C[C@H](C)c2nnn[nH]2)c2c(C(C)C)noc2n1 | -1 | 0.12
CN(Cc1ccc2nccnc2c1)C(=O)c1ccc(CCC(C)(C)O)cc1 | -6 | 0.82
COc1nc(C)cc(C)c1CN1C[C@@](C)(Cc2ccc3c(c2)OCO3)CCC1=O | 0 | -0.03
Cc1ccccc1NC(=O)N1CCN(c2nc(-c3ccc(C(F)(F)F)cc3)nc(C)c2C(C)C)CC1 | 0 | 0
Cc1nc(N2CCC[C@H]2c2nc3ccccc3s2)c2cnn(C(C)(C)C)c2n1 | -4 | 0.56
CC1CC(C)CN(C(=O)c2ccc(=O)n(C)c2)C1 (stereo not drawn) | -3 | 0.46

Compound | % Inhibition [%] | Z score
Cc1nn(-c2ccc(F)cc2)c2nc(C3CC3)nc(N3CCN(C(=O)c4ccccc4Cl)CC3)c12 | -15 | 1.56
O=S(=O)(NC[C@H]1CCCNC1)c1c(Cl)cc(F)cc1Br | -25 | 3.3
c1ccc(-n2ccnc2[C@H]2OCC[C@@H]2Nc2nccs2)cc1 | 2 | -0.29
CCOc1cccc(CN[C@H]2COCc3ccccc32)n1 | -24 | 2.22
Cc1cnc(CNC2(c3ccc(Cl)cc3)CCCC2)cn1 | -6 | 1.22
C[C@H](ON=C(N)Cn1cccn1)C(=O)Nc1cccc(Br)c1 | 5 | -0.83
CNc1ncccc1C(=O)N1C[C@@H]2NC(=O)c3ccc(OC)c(c3)OCCn3cc(nn3)CO[C@H]2C1 | -14 | 1.8
COc1ccccc1NC[C@H]1CCC=CO1 | -5 | 0.73
Cc1nc(NCCc2noc(CO)n2)c2c(C)noc2n1 | -15 | 2.5
Cc1nn(C)c2nc(-c3ccncc3)nc(N(C)CCN3CCCCCC3)c12 | 3 | -0.6
CCOc1ncccc1C(=O)NC1CCN(c2nc(C)nc3c2CCCC3)CC1 | -3 | 0.6
CCC(Oc1ccc2c(c1)C(c1ccc(F)cc1)N(C(=O)C1CCCC1)CC2)C(=O)N(C)Cc1ccccc1 (stereo not drawn) | -16 | 2.17
O=C(CCNS(=O)(=O)c1ccc(Cl)cc1)N[C@H]1CCS(=O)(=O)C1 | 7 | -1.25
COc1cccc(Cn2ncnc2-c2cc(C)nc(C)n2)c1 | -14 | 1.87
COc1ccc2c(c1)-c1nc(-n3ncc(C(=O)O)c3C)ncc1CC2 | -11 | 1.98
Cc1nc(C)c(S(=O)(=O)Nc2cc(Br)ccc2S(C)(=O)=O)s1 | 8 | -0.97
O[C@H]1CC[C@@H](c2nc(-c3cccc(F)c3)n[nH]2)CC1 | -7 | 1.11
Cc1cc(C(=O)N[C@H]2CC[C@H](Oc3cnccn3)CC2)c(C)o1 | -10 | 1.19
C[C@@H](C(=O)N1CCN(c2ccc3nccn3n2)CC1)n1ccnc1 | -3 | 0.34
O=C(COc1ccc(-c2ccccc2)cc1)Nc1ccc(-n2cnnn2)cc1 | -5 | 0.64
COc1ccnc(N2CC[C@H](S(=O)(=O)N3CCCC3)C2)n1 | -11 | 1.72

Compound | % Inhibition [%] | Z score
Cc1nn(-c2ccccc2)c2nc(C3CC3)nc(N3CCN(S(=O)(=O)c4ccc(Cl)cc4)CC3)c12 | -6 | 1
O=S(=O)(c1ccc2c(c1)CCCC2)N1CCCN(C2CCC2)CC1 | -18 | 3.12
Fc1ccc(-c2nc(CN(Cc3ccccn3)C3CC3)co2)cc1 | -17 | 2.37
CO[C@H]1CCOC[C@@H]1NC(=O)NCc1noc2cc(F)ccc12 | -11 | 1.39
CCn1cccc(CNC(=O)[C@@H]2COCCN2CC2CCC2)c1=O | 7 | -1.3
Cc1cc(CN(C)C[C@@H]2C[C@H](F)CN2Cc2nccn2C)ccn1 | -14 | 1.78
Cc1cncnc1C1CCN(C(=O)CCOc2ccccc2)CC1 | -9 | 1.46
Cc1nn(C(=O)C2CCCCC2)c(C)c1CNC(=O)C1CCCCC1 | -2 | 0.32
c1ccc2cc(-c3ncc(CN4CCC4)cn3)ccc2c1 | -9 | 1.19
CO[C@H]1CN(c2cc(Cl)ccc2C#N)C[C@@H]1O | 14 | -1.77
Cc1noc(C)c1S(=O)(=O)N(C)Cc1nc2ccccc2c(=O)[nH]1 | -9 | 1.15
CN(Cc1cn(C)nn1)C(=O)Nc1ccc(CS(=O)(=O)C(C)(C)C)cc1 | -4 | 0.61
CN1C[C@H](NC(=O)c2cc(C3CC3)n[nH]2)c2sccc2S1(=O)=O | -4 | 0.77
CCn1cnnc1CC1CCN(C(=O)CCn2c3c(c4ccccc42)CCCC3)CC1 | 0 | 0.02
O=C(c1ccc(Cl)cc1)[C@H]1CCCN(C2CCN(Cc3ccccc3)CC2)C1 | -18 | 1.9
N#Cc1cc2n(n1)CCCN(C(=O)C[C@H]1CCOC1)C2 | -6 | 1.14
CC(C)N1CC[C@H](CN(C)C(=O)Cc2ccc(F)cc2Cl)C1 | -6 | 1.18
Cc1nc(CO[C@H]2CCN(c3ccnc4c(Cl)cccc34)C2)cs1 | -39 | 4.52
CC(C(=O)NCC1CCCOC1)N(C(=O)OC(C)(C)C)C1CC1 (stereo not drawn) | 19 | -2.37
CNc1ncccc1CN1CCCn2nc([C@@H](O)CO)cc2C1 | -24 | 2.08
Cn1nc(-c2nccn2CCc2n[nH]c(=O)[nH]2)c2c(Cl)cccc21 | -19 | 2.59
